Results published in PubChem BioAssay AID686979 (National Center for Advancing Translational Sciences (NCATS), 2013).
Among all 420,000 compounds or so, about 50,000 (12%) were called active. The shares of active, inactive and inconclusive entries below differ from those in the screen. Calls come from the whole dose curve; as a rule, active = well fitted inhibition curve with a large enough effect; inconclusive = small, poorly fitted or top-dose-only effect; inactive = flat fitted curve, though single readings scatter. No potency is given beside an inconclusive call; the fits are too rough.

Test: qHTS for Inhibitors of human tyrosyl-DNA phosphodiesterase 1 (TDP1): qHTS in cells in presence of CPT; note: nearly all actives have a fitted effect of over 55% in size
Settings: chicken DT40 Tdp1-/-;hTDP1 cells + 20 nM CPT, ATP luminescence, 48 h; activity change, negative = growth inhibition: at 46.2 µM (top of the series) unless noted
In short: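 Chicken DT40 Tdp1-/- cells stably complemented with human TDP1 were seeded at 400 cells/well in medium containing 20 nM camptothecin, exposed to pin-transferred compounds, and grown at 37 °C for at least 48 hr. Viability was read as ATP luminescence.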
% is set by controls: 0 for no effect and ±100 for the full control effect; potency is the fitted concentration of half-maximal effect; tags give direction and shape of the fitted curve.

| Compound | activity change, negative = growth inhibition | Potency |
| --- | --- | --- |
| NC(=O)c1ccc(NC(=O)COC(=O)c2ccccc2SCC(=O)N2CCCC2)cc1 | inconclusive: -30.3% [inhibitor] |  |
| CCc1ccc(NC(=O)C2CCN(S(=O)(=O)c3c(C)noc3/C=C/c3ccco3)CC2)cc1 |  | inconclusive [inhibitor, partial curve, poor fit] |
| CN(CC(=O)NC(=O)NCc1ccco1)CC(=O)Nc1ccccc1Cl |  | inactive |
| COc1ccc(-c2nc3cc(C(C)C)ccc3o2)cc1NC(=O)c1ccc(C)c(Cl)c1 |  | active: 20.6 µM |
| O=S(=O)(NCc1nc2cccnc2n1Cc1ccc(F)cc1)c1ccc(Cl)s1 |  | inconclusive [inhibitor, single point] |
| Nc1ccn([C@@H]2O[C@H](C(=O)N[C@H]3c4ccccc4C[C@H]3O)[C@@H](O)[C@H]2O)c(=O)n1 |  | inactive |
| COC(=O)c1cc2sc(C)cc2n1CC(=O)Nc1cccc(SC)c1 |  | inactive |
| Cc1cccc(OCC(=O)Nc2ccc3oc(-c4ccccc4F)nc3c2)c1 |  | inconclusive [inhibitor, single point] |
| COc1ccc(NC(=O)c2cc(S(=O)(=O)NCCC3=CCCCC3)ccc2F)cc1 |  | active: 25.9 µM |
| CCN1CCN(C(=O)c2ccc(CSc3ccc(C)cc3)cc2)CC1 |  | inconclusive [inhibitor, partial curve] |
| COc1ccc(OCC(=O)N/N=C(\C)c2cc3ccccc3o2)cc1 |  | inactive |
| O=C(Cc1n[nH]c(=O)c2ccccc12)NCc1ccccc1 |  | inconclusive [inhibitor, single point] |
| CC(=O)OCCNc1cc(SCc2ccco2)c2nonc2c1[N+](=O)[O-] |  | inconclusive [inhibitor, single point] |
| O=C(C[n+]1cc(-c2ccc(Cl)cc2)n2c1CCCCC2)c1ccccc1 |  | active: 6.51 µM |
| COc1cc(/C=C2\CCCc3c2nc2ccccc2c3C(=O)O)cc(Cl)c1O |  | inactive |
| CCC/C=C/c1ccc(CN2C(C(C)C)C(=O)N(Cc3cn(CCC4OCCCO4)nn3)CCS2(=O)=O)cc1 (stereo unspecified) |  | inconclusive [inhibitor, single point] |
| C#CCOCCOCCOCCNc1nc(N2CCN(C(=O)Cn3cc(CCO)nn3)CC2)nc(N2CCN(C(=O)[C@H](C)n3cc(CCCN=C(N)N)nn3)CC2)n1 |  | inactive |
| CC1(C)Oc2ccc3ccc(=O)oc3c2[C@@H](O)[C@H]1O |  | inconclusive [inhibitor, single point] |
| COc1cc(OC)cc(-c2nnc(SCC(=O)N3CCCc4ccccc43)o2)c1 |  | inconclusive [inhibitor, single point] |
| COc1ccc2nc(C)cc(SCC(=O)N/N=C/c3ccc(O)cc3O)c2c1 |  | inconclusive [inhibitor, single point] |
| CC(C)N(Cc1nc(-c2ccccc2)no1)S(=O)(=O)c1ccccc1 |  | inconclusive [inhibitor, single point] |
| COC(=O)C1CCN(S(=O)(=O)c2ccc(OC)cc2)CC1 |  | inactive |
| CC(C)C(=O)Nc1csc(C(F)(F)F)c1-c1ccccc1 |  | inactive |

| Compound | activity change, negative = growth inhibition | Potency |
| --- | --- | --- |
| COc1cccc(N(C(=O)Cn2nnc(-c3ccc(Cl)cc3)n2)C(C(=O)NCC2CCCO2)c2ccc(C)cc2)c1 (stereo unspecified) |  | active: 16.4 µM |
| CCCCCC(=O)N(c1ccc(OCC)cc1)S(=O)(=O)c1ccc2c(c1)n(C)c(=O)n2C |  | active: 20.6 µM |
| COC(=O)c1c(NC(=O)CSc2ncnc3c2cnn3-c2ccccc2Cl)sc2c1CCCC2 |  | inconclusive [inhibitor, single point] |
| Cc1cccc(/C=N/N2CCN(c3ccccc3)CC2)c1 |  | inactive |
| CN1CCN(c2ccc(S(=O)(=O)N3CCCCC3)cc2NC(=O)/C=C/c2ccc(OC(F)F)cc2)CC1 |  | inconclusive [inhibitor, partial curve, poor fit] |
| COc1ccc(CNc2ccc(-c3ccc(OC)cc3)nn2)cc1 | inconclusive: -25.1% [inhibitor] |  |
| COc1ccccc1CNc1nc(NCc2ccccc2OC)c2sccc2n1 |  | active: 11.6 µM |
| COc1ccc2c(c1)C(SCC(=O)NCCc1ccc(Cl)cc1)CC(C)(C)O2 (stereo unspecified) |  | active: 16.4 µM |
| O=c1c2cn[nH]c2nc(SCc2ccccc2F)n1-c1ccc(Br)cc1 |  | inconclusive [inhibitor, single point] |
| Cc1ccc(S(=O)(=O)N2CCN(Cc3cccc(C)c3O)CC2)cc1 |  | inactive |
| CC1CCCCC1NC(=O)C(=O)NCC1CCCO1 (stereo unspecified) |  | inactive |
| COc1ccc(Cn2ccc3nc(C)c(C(=O)N4CCN(c5ccccc5F)CC4)cc3c2=O)cc1 |  | active: 23.1 µM |
| Cc1cc(Oc2ccc(C(C)(C)C)cc2)nc(N2CCOCC2)n1 |  | inconclusive [inhibitor, single point] |
| C=CCOc1ccccc1CN1CCC(n2nccc2NC(=O)C2CC2)CC1 |  | inactive |
| CCCN1CCC(N2CCCC(C(=O)O)C2)CC1 (stereo unspecified) |  | inactive |
| Cc1cc(-c2cc(C(=O)NC3CCCC3)on2)nc(NC2CCCC2)n1 |  | inconclusive [inhibitor, single point] |
| CCN(CC)CCNC(C(=O)Nc1ccc([N+](=O)[O-])cc1Br)c1ccccc1 (stereo unspecified) | inconclusive: -31.2% [inhibitor] |  |
| NC(=O)c1ccsc1NC(=O)COC(=O)Cc1cccc2ccccc12 |  | active: 9.2 µM |
| COC(=O)C1=C(C(=O)OC)[C@@H]2N(C)c3ccccc3[C@@]23C[C@@H](C(=O)OC)N(C(=O)c2cccs2)C3=N1 |  | inconclusive [inhibitor, single point] |
| Cc1ccc(NC(=O)Cn2cc3c(n2)CCC(C)C3)cc1C (stereo unspecified) |  | inactive |
| Cn1nc(C(F)(F)F)c(-c2cccc(C(F)(F)F)c2)c1NC(=O)CSCC(=O)O |  | inactive |
| C[C@H]1CN([C@@H](C)CO)C(=O)c2cc(C#Cc3cccnc3)cnc2O[C@H]1CN(C)Cc1ccc(F)cc1 |  | inconclusive [inhibitor, single point] |
| COc1ccc(-c2cc(C(=O)N3CCN(c4ncccn4)CC3)c3ccccc3n2)cc1OC |  | inconclusive [inhibitor, partial curve] |
